In paper PMC4242493 one finds binding signal (normalized occupancy) data, which are given here for 172 sequences.

The other results are listed elsewhere or left out. The list includes weakly bound sequences.

This test concerns the target MaxL homodimer (UniProt P61244). Description: universal protein-binding microarray (PBM). As to conditions: PBS-based mixture, 10 nM His-tagged protein dimer, 2% milk, 200 ng/uL BSA, 50 ng/uL salmon testes DNA, 0.02% TX-100; detection with Alexa 488 anti-His …; high values mean tight binding; most listed sequences are background and not binding sites; double strand, one strand shown.
Chain of UniProt P61244 (P61244 whole entry): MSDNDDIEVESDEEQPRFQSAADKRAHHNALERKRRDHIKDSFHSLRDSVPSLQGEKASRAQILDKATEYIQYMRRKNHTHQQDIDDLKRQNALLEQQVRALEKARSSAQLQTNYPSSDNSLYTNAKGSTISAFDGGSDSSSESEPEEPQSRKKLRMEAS
Take AGGGGTAT: the binding signal (normalized occupancy) was found to be 0.0835.
Under CACGCTTA stands 0.103.
In the case of ACACATCG, the binding signal (normalized occupancy) turned out to be 0.082.
Under CGCCGGTC stands 0.0693; under AACGGGCG, 0.0711.
On to CCATCGGC, for which the binding signal (normalized occupancy) worked out at 0.071.
Under CGCGCACC stands 0.0841; under CAAGCAAC, 0.0732; under AAGATTAA, 0.073.
Under GCCCTCCC stands 0.0743; under AGGAGAGG, 0.0762.
Under TGTGATAA stands 0.0816.
With GAGCGATA, the binding signal (normalized occupancy) amounted to 0.0734.
On to CCGGCCAG, for which the binding signal (normalized occupancy) was determined as 0.0645.
As for TCTTTCAA, the binding signal (normalized occupancy) was 0.0757.
Under AGATTGAA stands 0.0772; under AAAAAGGC, 0.0707; under ACCTATAC, 0.0887.
Under AAGTCTGT stands 0.0749.
Under CAATGCAC stands 0.0848.
As to GCCTTAAA, the binding signal (normalized occupancy) stood at 0.0724.
For CAGGAAAA, the binding signal (normalized occupancy) was 0.0702.
As to CATACCGG, the binding signal (normalized occupancy) was 0.0781.
In the case of AGAGATAG, the binding signal (normalized occupancy) came to 0.0711.
Under AACGATAG stands 0.081; under TCAATTCA, 0.0818; under AGGTGAAG, 0.0713.
Under ACATTGTC stands 0.0885.
Under CGCACGAA stands 0.0816; under ACGCGAGG, 0.0859.
Turning to CTCTTGAA, the binding signal (normalized occupancy) amounted to 0.069.
Under AACCGCTG stands 0.0688; under ACACAGTG, 0.0742; under ACCATCAT, 0.0841.
Under GCCGGTTA stands 0.0674.
Under ACCGAGGA stands 0.0694.
Regarding CACGCAAG, the binding signal (normalized occupancy) was found to be 0.0838.
Under GATTAGAA stands 0.0792.
ATCAGTTG: the binding signal (normalized occupancy) was 0.0803.
Turning to CACTCCTA, the binding signal (normalized occupancy) is 0.0771.
Under CTTCATGA stands 0.0786.
Under ACACATAC stands 0.0823.
Under CGCCGTTA stands 0.0701; under CAAATAAG, 0.0746.
Turning to AACGGATA, the binding signal (normalized occupancy) is 0.0769.
Under GGAGGTAC stands 0.0702; under ACGGAACA, 0.0733; under GGCGATTA, 0.0745.
Under ACGTGTAC stands 0.0984; under ATAGATCG, 0.0741.
Take GTCCAGTA: the binding signal (normalized occupancy) was 0.0711.
In the case of AACGCCCG, the binding signal (normalized occupancy) was found to be 0.0749.
Under AAATTCGG stands 0.0731.
On to ATCTATAA, for which the binding signal (normalized occupancy) came out at 0.0827.
Under CGCTGTAA stands 0.0749.
Turning to GTCGCGAC, the binding signal (normalized occupancy) was determined as 0.0765.
Regarding TGATAGAA, the binding signal (normalized occupancy) is 0.0854.
Under CGCACGCA stands 0.0894.
Under AGGACAGA stands 0.0755; under CTGGCATC, 0.0802; under GTCTACAC, 0.0796.
With CAGGGTTC, the binding signal (normalized occupancy) was 0.0691.
Take GTAGGCCA: the binding signal (normalized occupancy) turned out to be 0.073.
Under GACGCAGC stands 0.0696.
Under TTCATGAA stands 0.0781; under AAACCTGT, 0.0771.
For CCCCATCA, the binding signal (normalized occupancy) worked out at 0.0823.
As to ATACTTAG, the binding signal (normalized occupancy) was determined as 0.0765.
In the case of CCGCCTAA, the binding signal (normalized occupancy) was found to be 0.0695.
ACTTCCCC: the binding signal (normalized occupancy) worked out at 0.0762.
For the sequence AGTCCTCG, the binding signal (normalized occupancy) was found to be 0.073.
Under CTCCGAGA stands 0.0665.
As to GTCTTTAA, the binding signal (normalized occupancy) is 0.075.
Under AGGGTGTG stands 0.083.
Under CCGCGTTA stands 0.0844.
Under ATTCCGTA stands 0.0718.
As for CTTGAGCA, the binding signal (normalized occupancy) came out at 0.0716.
Under ATCTATCC stands 0.079; under AATGTGTG, 0.0963.
Under AAATTACC stands 0.0766; under TGGCTCAA, 0.0788; under GGCCGCAC, 0.0778.
Under CTTTGATA stands 0.0754; under TACATGTA, 0.0978; under AGAGGTCG, 0.0702.
As for CAACGGGA, the binding signal (normalized occupancy) amounted to 0.0696.
Under CGATTGAG stands 0.0741.
Under AAGCATTC stands 0.0773.
For CAGTGTGA, the binding signal (normalized occupancy) came out at 0.0846.
For the sequence CTCATCGA, the binding signal (normalized occupancy) amounted to 0.0766.
In the case of TAATGAAA, the binding signal (normalized occupancy) was determined as 0.0775.
For AAGAATGG, the binding signal (normalized occupancy) was found to be 0.0739.
Under AGCTCGGA stands 0.0663.
Under ACGGACCC stands 0.0719.
As for TAGATGCA, the binding signal (normalized occupancy) is 0.0785.
Under AGGGTGTA stands 0.0815.
For TGTAGCAA, the binding signal (normalized occupancy) was 0.0791.
Take GACTGGAC: the binding signal (normalized occupancy) amounted to 0.0684.
Under AGCCGGTA stands 0.0711.
Under AACCGTGC stands 0.0756.
Under AGGTTTTA stands 0.0742.
For the sequence GCATGTAC, the binding signal (normalized occupancy) came to 0.0973.
Under ACGACCCT stands 0.0771; under TCATACCA, 0.0779.
Under ATTTCGCG stands 0.0704.
Under CCAGGCGA stands 0.0673.
Turning to CATAATCA, the binding signal (normalized occupancy) worked out at 0.0913.
Under AGTTAACG stands 0.0743.
Under GTTCGTAA stands 0.0774.
Under GCCCACGC stands 0.0978; under ACCTTCGG, 0.0671; under CCGAGCCA, 0.075.
Turning to ACTTGAGG, the binding signal (normalized occupancy) is 0.0797.
Under TGTCTTAA stands 0.0757.
Under AGTATAAG stands 0.0804.
Under AAGCCTGC stands 0.0691; under AATTACTC, 0.0715.
Turning to CTGCTTGC, the binding signal (normalized occupancy) came to 0.0676.
CCGTCACG: the binding signal (normalized occupancy) amounted to 0.0826.
Take ATCGTCTA: the binding signal (normalized occupancy) turned out to be 0.0762.
Take AGTGCGGG: the binding signal (normalized occupancy) is 0.07.
For CGCGGGAC, the binding signal (normalized occupancy) stood at 0.0733.
Under AACCTGTA stands 0.0779; under AAGCCCTA, 0.0709.
Under CTATTTGC stands 0.0743; under AACGCACA, 0.083.
Under AGAAGACC stands 0.0721; under GCCTGGAA, 0.0719.
For TATATGAA, the binding signal (normalized occupancy) is 0.0809.
Under GGGCGGCA stands 0.0702.
Under ACACGGGC stands 0.0739.
Under GCCTGCGA stands 0.0709.
For GGGCATTA, the binding signal (normalized occupancy) came to 0.0747.
In the case of CGCCCAAA, the binding signal (normalized occupancy) is 0.0711.
Under ATCTCCTC stands 0.0776; under ATGACTCG, 0.0761.
Under GCCGACCA stands 0.0757.
Under ATTCTCCA stands 0.076; under ATATTCGG, 0.0785.
For the sequence CTTGCAAG, the binding signal (normalized occupancy) was determined as 0.0643.
Under GTAGAGTA stands 0.073; under GCCGGATA, 0.0712.
Under ACAACACT stands 0.0746; under AACTGTCC, 0.0711; under AGAGCCTA, 0.0729.
Under ACATGGAC stands 0.0847; under GGTGCCGA, 0.0705.
For ATTCATTG, the binding signal (normalized occupancy) is 0.0787.
CACTCCTG: the binding signal (normalized occupancy) amounted to 0.0721.
In the case of GCGAAACA, the binding signal (normalized occupancy) is 0.0802.
Under GTAAATAC stands 0.0788.
Under GGCTATAC stands 0.072; under CGAGGCAG, 0.0725.
Under CCCTAGGA stands 0.066.
For GGTTTGTA, the binding signal (normalized occupancy) was 0.0749.
Under AGAGTGTC stands 0.0703; under GATCTTCC, 0.0741; under CCATGGTC, 0.0849.
Regarding CAAAGCCA, the binding signal (normalized occupancy) is 0.076.
Under GCTGAACA stands 0.0755.
Under AGTGGGCA stands 0.0761; under GATTTGAC, 0.0751; under TATTACCA, 0.0787.
Under CTGAGGCA stands 0.0726; under GATTGCGA, 0.0719; under GCGTTGCC, 0.0755.
For the sequence TTCGCCAA, the binding signal (normalized occupancy) was 0.0733.
Under CTAAAATC stands 0.0735; under AATAATGT, 0.0873.
Under ACTATAAC stands 0.0847; under CATAGCAC, 0.0874; under CGGGGGAG, 0.0782.
